From the supplement of paper PMC10126150
Values marked as one replicate rest on one cluster of the flow cell; about a third of the high ones do not repeat.

System: ATP
Experiment: switch fluorescence ratio, 500 uM ATP over buffer (Cy3 cluster intensity, sum of 5 cycles each) (fold (ratio)); higher = stronger signal-on switching upon ATP binding; sequences stand for … in TCGTCGGCAGCGTCAGATGTGTATAAGAGACAGTTTTTTTTTTTTTTTTTTTTTTTTT…TC
Details: aptamer strand: ATP DNA aptamer (quencher-CACCTGGGGGAGTATTGCGGAGGAAGG + anchor), 100 nM annealed; ATP concentration: 500 uM; one replicate
Procedure, shortened: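 Values give the fluorescence ratio for each switch-domain sequence, averaged from per-cluster ratios of summed target-cycle to summed buffer-cycle Cy3 intensity. The Cy3-labelled switching-strand clusters sat on a modified Illumina MiSeq flow-cell, were annealed to 100 nM quencher-labelled ATP aptamer, and were imaged in selection buffer, then after 15 min with 500 uM ATP at 22 °C. Five cycles ran with NaOH stripping and re-annealing between them, and clusters outside 100-1000 RFU were excluded.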
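Note: ATP exposure 15 min at 22 °C before imaging.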

| Sequence | switch fluorescence ratio |
| --- | --- |
| GCTCCAGATG | 1.43 |
| CCCGTAGAGG | 1.02 |
| TTCGTAAGGA | 0.926 |
| TAATCCTGCT | 0.95 |
| TATGGTTGTA | 1 |
| ATCATGTAAT | 0.995 |
| TAAGCCCTTT | 1.04 |
| CAATGGGATC | 1.05 |
| CAGCTCACGG | 1.05 |
| GGTTCGGCTT | 0.992 |
| ACAGGGTCTA | 1.05 |
| TTGGGGGTAC | 1.09 |
| TGACTCTAGC | 1.06 |
| TTTATGCTA | 0.992 |
| CCGGTAAAAG | 1.03 |
| GGCGAGCCGC | 0.989 |
| CCAGGATCCG | 0.99 |
| TTTCTAGGCC | 0.962 |
| TCTCAGCACT | 2.11 |
| TCTAATTCGA | 1.01 |
| GATACTGGCT | 1.02 |
| CGAATTATTG | 0.97 |
| TGGGTATGGA | 1.04 |

| Sequence | switch fluorescence ratio |
| --- | --- |
| AATGCACGT | 1.1 |
| CCGGGAGACA | 1.16 |
| TCAGTCGCGC | 1.04 |
| AGGCATGTGG | 0.971 |
| AAACTGGTCT | 0.966 |
| TGGATGAAAT | 1 |
| AATTGGTCCA | 1.02 |
| ATGGTGGGTT | 0.982 |
| AGCATCGATT | 1.02 |
| TCAGCGTCAC | 1.23 |
| CGATGTATT | 0.991 |
| AAGAGTTCGG | 0.998 |
| ATCTTGTTCG | 0.987 |
| CATACCGCTA | 3.99 |
| CGGGGGCTAA | 1.08 |
| TGATCTACCT | 1.22 |
| TGAATCCGCC | 5.97 |
| CATGCTGAC | 0.975 |
| AAACCCGGTC | 1.04 |
| GGCATTACAC | 1.12 |
| TGACCTCGGG | 1.01 |
| CAGTCAGCC | 1.02 |
| TTACTAACGG | 1.58 |

| Sequence | switch fluorescence ratio |
| --- | --- |
| TTTCTTCGAC | 1.08 |
| TGAGCATCGG | 1.03 |
| CTGGACACCT | 1.08 |
| AAGGCCACAC | 1.07 |
| TGAGTCATTG | 1.07 |
| CTGCCCCTGC | 1.01 |
| CGTATTACTG | 0.883 |
| GACGCCGGGA | 1.1 |
| CAGCGACAGG | 1.04 |
| TACGTATCTC | 1.18 |
| ATACAGAGCC | 1.04 |
| ACTTAATTA | 1.04 |
| CGTGAGATA | 1.02 |
| GTTAGTTTGT | 1.01 |
| TCGGGTATGC | 0.985 |
| AAGAGAATTT | 0.975 |
| AAATCGGGCT | 1.02 |
| AGGTGCAACG | 0.93 |
| GGGCACTTCA | 1.02 |
| AATCCCCTGA | 0.992 |
| CGAATAAG | 1.04 |
| GGAGAGAGAT | 0.985 |
| CTAGAACTTG | 0.997 |

| Sequence | switch fluorescence ratio |
| --- | --- |
| AGGGCCAAAG | 1 |
| GATCTCACAT | 0.995 |
| CCATACGGCG | 1.03 |
| TTAACCTGGT | 1.06 |
| CGACGAAGCG | 1.01 |
| TAACCCTTTT | 1.03 |
| TTTCGTTCGG | 0.992 |
| GTTTTGTGA | 1.02 |
| AAGCAATGCT | 2.61 |
| GTTGATAATC | 0.999 |
| CAGTAATACT | 7.03 |
| TTTATAGATA | 0.989 |
| GCAGTGTCAT | 1.04 |
| GACTCTCTAA | 1.05 |
| CTCCAACTTG | 0.996 |
| TTCGATCTTA | 0.98 |
| TGTAATAAAA | 0.978 |
| GTGTTCCGA | 1.02 |
| GCATACTGTA | 1.12 |
| ATTAATGC | 0.925 |
| TAGCTAATAG | 1.28 |
| CTCAGTAGGA | 1.01 |
| ACCGGTCAGT | 0.982 |

| Sequence | switch fluorescence ratio |
| --- | --- |
| AATGTTCAAG | 0.974 |
| AATGCAGGAA | 1.02 |
| ACGAAAGAGA | 1.02 |
| ACACTTACGG | 1.59 |
| TTGACAGGTG | 1.29 |
| TAGACGTAGT | 1.04 |
| GTGTTCGGTC | 0.96 |
| AACCATGTAA | 1 |
| CTTGAAGGAG | 1.05 |
| CAATTACGGG | 1.11 |
| GGAATGCTGT | 0.993 |
| CAGTGGTAGG | 1.03 |
| CGGTAGATGG | 0.979 |
| AGGCTGGGTC | 1.02 |
| CGGGAACTTC | 1.01 |
| ACAAACTAAC | 1.15 |
| GCCTTGCAGG | 0.967 |
| TTGGCTACTA | 0.97 |
| AAGATTAAGT | 0.979 |
| GAATGGGTGC | 0.98 |
| AATTAGGAGA | 0.962 |
| GAAACTGAGA | 0.986 |
| CTATACATA | 1.14 |

| Sequence | switch fluorescence ratio |
| --- | --- |
| CAAGCATATG | 1.04 |
| GACCGACGTC | 1.25 |
| CGGAATATCG | 1.01 |
| GTTGACACGA | 1.04 |
| TAGCAGTACA | 1.53 |
| ATATGATTTA | 0.953 |
| AATGGCCT | 1.06 |
| TGGTTGCCTA | 1.02 |
| ATTTTTCGCA | 0.966 |
| AGCAGAGGTC | 0.958 |
| TTTCTTTTT | 0.937 |
| TTAAATCAGG | 1.01 |
| TTCTCAGCTT | 1.01 |
| AGCACTGAAG | 0.997 |
| AGGGGTTGCA | 0.952 |
| ATTTGACAGC | 0.981 |
| TGGGCGGACA | 0.998 |
| ATCCGGTGGG | 1.02 |
| CAAGCGGCAA | 1.47 |
| CCATAAATGA | 1.03 |
| CGCTCACACT | 1.09 |
| CTAATCGTGG | 0.978 |
| TGACCAGCAC | 1.2 |

| Sequence | switch fluorescence ratio |
| --- | --- |
| ACATCTTGAC | 1.08 |
| AAGGTATTGT | 0.995 |
| TTTAGCAACG | 1.06 |
| TTCCTAGTCA | 1.02 |
| GGGACCGCAG | 1.02 |
| CTCCTATAGG | 1.07 |
| ATACCTAGAC | 1.03 |
| GTTCTATGAG | 1.01 |
| AAGCTGGCGT | 0.996 |
| CACTAATCCC | 1.07 |
| GACAAGTTAG | 1.01 |
| GCGTTTATAA | 1.02 |
| ACATTGTAAT | 0.928 |
| GAGGGAATCT | 1.04 |
| TTGGTCACTG | 0.988 |
| TAGGATGAAT | 0.989 |
| CTCATGAGGG | 1.01 |
| ACTTCTGGT | 0.96 |
| CGGTTGACAC | 1 |
